Measured values from PubChem BioAssay AID686979 (National Center for Advancing Translational Sciences (NCATS), 2013).
“And” between values parts separate entries of the source, which are not always exact repeats. Identical values can stand only once. In all, about 420,000 compounds went through this assay and about 50,000 (12%) were called active. Inconclusive means that the source gave no clear call. Such entries were picked first, then a sample of the others. Calls follow the shape of the dose curve; as a rule, active = well fitted inhibition curve with a large enough effect; inconclusive = small, poorly fitted or top-dose-only effect; inactive = flat fitted curve, though single readings scatter. Potencies of inconclusive entries are doubtful fits and often do not repeat.

assay: qHTS for Inhibitors of human tyrosyl-DNA phosphodiesterase 1 (TDP1): qHTS in cells in presence of CPT; settings: chicken DT40 Tdp1-/-;hTDP1 cells + 20 nM CPT, ATP luminescence, 48 h; activity change, negative = growth inhibition: at 46.2 µM (top of the series) unless noted; also: nearly all actives have a fitted effect of over 55% in size
Summary of the method: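 Chicken DT40 Tdp1-/- cells stably complemented with human TDP1 were seeded at 400 cells/well in medium containing 20 nM camptothecin, exposed to pin-transferred compounds, and grown at 37 °C for at least 48 hr. Viability was read as ATP luminescence.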
% is scaled to controls: 0 for no effect and ±100 for the full control effect; potency is read from the fitted curve at half-maximal effect; tags tell the direction and shape of the fitted curve.

| SMILES | activity change, negative = growth inhibition | Potency |
| --- | --- | --- |
| O=C(/C=C/[C@H]1O[C@@H](n2cnc3c(NC(=O)c4ccccc4)ncnc32)[C@H](O)[C@@H]1O)NCc1cccc2ccccc12 | inactive: -0.193% | – |
| CC(C)c1ccc2[nH]c3c(c2c1)[C@@H]1CCN2C(=O)CCC[C@H](C3)[C@H]12 | – | active: 18.4 µM |
| COc1ccc(NS(=O)(=O)c2ccc(C)c(C(=O)NCC(c3cccs3)N3CCOCC3)c2)cc1 (configuration not stated) | – | inconclusive: 29.1 µM [inhibitor, single point] |
| NC(=O)c1cc([N+](=O)[O-])ccc1N1CCCCC1 | inactive: -6.24% | – |
| O=C(Nc1nnc(S(=O)(=O)N2CCCc3ccccc32)s1)c1ccccc1Cl | – | inconclusive: 18.4 µM [inhibitor, single point] |
| Clc1cccc(-c2nc(NCCN3CCOCC3)c3ccccc3n2)c1 | – | inconclusive: 29.1 µM [inhibitor, single point] |
| CC(C)N1CCN(S(=O)(=O)c2ccccc2)c2ccccc21 | – | inconclusive: 32.6 µM [inhibitor, single point] |
| Cc1cc(C)c(S(=O)(=O)Nc2cccc(C(F)(F)F)c2)c(C)c1 | – | inconclusive: 29.9 µM [inhibitor, single point] and inconclusive: 35.5 µM [inhibitor, single point] |
| COCc1nnc(NC(=O)CCS(=O)(=O)c2ccccc2)s1 | – | active: 10.3 µM |
| COc1ccccc1-n1cnc2sc(-c3ccccc3)cc2c1=O | – | inconclusive: 23.1 µM [inhibitor, single point] |
| CCN(CC)P(=O)(Nc1ccc(C)cc1Br)c1ccc(N(C)C)cc1NC(=O)c1ccco1 (configuration not stated) | – | inconclusive: 23.1 µM [inhibitor, single point] |
| O=C(CSc1nc2c(sc3ccccc32)c(=O)n1CCCN1CCCC1)NCc1ccccc1 | inactive: -61.6% | – |
| C=C1C[C@@H]2C[C@@H]2CN(S(=O)(=O)c2ccc(C)cc2)[C@@H]1c1ccco1 | – | inconclusive: 29.1 µM [inhibitor, single point] |
| CCCNC(=O)C1(C)CCCN(Cc2c(C)nn(-c3ccccc3)c2C)C1 (configuration not stated) | inactive: -11.8% | – |
| COc1ccc(Br)cc1/C=N/NC(=O)CNC(=O)/C=C/c1ccccc1 | – | active: 16.4 µM |
| COc1cc(-c2nc3ccc4ccccc4c3c3c2CCC3)ccc1O | – | inconclusive: 29.1 µM [inhibitor, single point] |
| COc1cc(SC)ccc1C(=O)N1CCCc2ccccc21 | – | inconclusive: 16.4 µM [inhibitor, partial curve] |
| Cc1ccc(-n2nc(CO)c(C(=O)NC(C)CCCc3ccccc3)n2)cc1 (configuration not stated) | – | inconclusive: 18.4 µM [inhibitor, single point] |
| Cc1nc2ccc(NS(=O)(=O)c3ccc(F)c(F)c3F)cc2s1 | – | inconclusive: 13 µM [inhibitor, single point] |
| CCCn1c(=O)sc2cc(NC(=O)c3ccc(OC)c(Br)c3)ccc21 | – | inconclusive: 18.4 µM [inhibitor, single point] |
| CCCOc1ccc(CN(C(=O)Cc2coc3ccc(CC)cc23)C2CCS(=O)(=O)C2)cc1 (configuration not stated) | – | inconclusive: 29.1 µM [inhibitor, single point] |
| Cc1ccc(NC(=O)c2cccc(N3C(=O)C4C5C=CC(C5)C4C3=O)c2)cc1C (configuration not stated) | – | active: 23.1 µM |
| CCOc1ccc(NC(=O)c2c(NC(=O)CNCCN3CCOCC3)sc3c2CCC3)cc1 | – | inconclusive: 29.1 µM [inhibitor, single point] |

| SMILES | activity change, negative = growth inhibition | Potency |
| --- | --- | --- |
| CC(=O)Nc1ccc(NC(=O)c2ccc(-c3ccccc3Cl)o2)cc1 | – | inconclusive: 29.1 µM [inhibitor, single point] |
| COc1cccc(C(C)NC(=S)NCc2ccc(F)cc2)c1 (configuration not stated) | – | inconclusive: 25.9 µM [inhibitor, single point] |
| O=C(Nc1ccc2c(c1)OCCO2)C(c1ccccc1)n1c(=O)c(-c2ccco2)nc2ccccc21 (configuration not stated) | – | active: 4.11 µM |
| Cc1oc(-c2ccc(Cl)cc2)nc1CN1CCC(C(=O)N2CCc3ccccc3C2)CC1 | – | active: 23.1 µM |
| CCOCCCNc1ncc2c(n1)CC(c1ccc(C)cc1)CC2=O (configuration not stated) | – | inconclusive: 29.1 µM [inhibitor, single point] |
| CC1CN(S(=O)(=O)c2ccc(C(=O)N3c4ccccc4CC3C)cc2)CC(C)O1 (configuration not stated) | – | inconclusive: 9.2 µM [inhibitor, partial curve] |
| O=C(Nc1cccc2ccccc12)c1ccc2sc([C@H]3C[C@H](O)[C@@H](CO)O3)nc2c1 | – | inconclusive: 18.4 µM [inhibitor, single point] |
| O=C(Nc1nc(-c2ccncc2)cs1)C1c2ccccc2Oc2ccccc21 | – | active: 20.6 µM |
| CC(=O)C(Sc1nccc(-c2cccs2)n1)C(C)=O | inconclusive: -34.3% [inhibitor] | – |
| Cc1ccc(-c2noc(CCC(=O)N3CCCc4ccccc43)n2)cc1 | – | inconclusive: 16.4 µM [inhibitor, single point] |
| O=C(Nc1ccc(Nc2ccccc2)cc1)C1CC1 | – | active: 7.31 µM |
| COc1ccc(NC(=O)c2c(NCc3sccc3C)sc3c2CCCC3)c(OC)c1 | – | active: 20.6 µM |
| Cc1cc(C)c(S(=O)(=O)N2CCN(C(=O)CCOc3ccccc3C)CC2)c(C)c1 | inactive: -25.9% | – |
| O=C(CN1C(=O)C2CC=CCC2C1=O)Nc1nc(-c2ccc(F)cc2)cs1 (configuration not stated) | – | inconclusive: 25.9 µM [inhibitor, partial curve] |
| CCCn1c(C(C)Nc2nc(-c3cccc(Br)c3)cs2)nc2ccccc21 (configuration not stated) | – | inconclusive: 18.4 µM [inhibitor, single point] |
| Cc1ccc(-c2cc(-c3ccccc3)nc(N/N=C/c3cccnc3)n2)cc1 | – | active: 29.1 µM |
| NC(=O)c1c(NC(=O)c2cccnc2)sc2c1CCCCC2 | – | inconclusive: 16.4 µM [inhibitor, single point] |
| Cc1ccc(NC(=O)CN2CCN(S(=O)(=O)c3ccc(C(C)C)cc3)CC2)cc1F | – | active: 20.6 µM |
| c1ccc(-c2ccnc3nc(N4CCN(c5ccccc5)CC4)nn23)cc1 | – | active: 18.4 µM |
| CCN1CCN(Cc2ccc(NC(=O)c3cc(NC(=O)c4cc(-c5ccc(OC)cc5)n[nH]4)cc(OC)c3)cc2C(F)(F)F)CC1 | – | inconclusive: 16.4 µM [inhibitor, single point] |
| C/C=C\C(=O)Nc1cccc(C2=NOC3(C2)C[C@@H](C(N)=O)N(C(=O)CC(c2ccccc2)c2ccccc2)C3)c1 (some centres not stated) | – | inconclusive: 29.1 µM [inhibitor, single point] |
| OCCC1CN(Cc2c(O)ccc3ccccc23)CCN1CCc1ccccc1 (configuration not stated) | – | inconclusive: 18.4 µM [inhibitor, partial curve] |
| CC1(Cc2ccc(F)cc2)C(=O)Nc2c(Cl)ccc(Cl)c21 (configuration not stated) | – | inconclusive: 29.1 µM [inhibitor, partial curve] |

| SMILES | activity change, negative = growth inhibition | Potency |
| --- | --- | --- |
| N#Cc1cccc(-c2ccc3ncnc(N4CCNCC4)c3c2)c1 | inactive: -13.1% | – |
| CSCCC(C(=O)NC(C)(C)C)n1c(-c2ccccc2)nc2ccccc21 (configuration not stated) | – | inconclusive: 23.1 µM [inhibitor, single point] |
| COc1ccc(Nc2nnc(-c3ccc(O)cc3)c3ccccc23)cc1 | – | inconclusive: 3.66 µM [inhibitor, full curve] |
| COc1ccc(-c2nc(C#N)c(N3CCN(C(=O)c4ccco4)CC3)o2)cc1OC | – | inconclusive: 9.2 µM [inhibitor, single point] |
| O=S(=O)(Nc1nnc(-c2ccccc2)s1)c1ccc(Cl)cc1 | – | inconclusive: 23.1 µM [inhibitor, single point] |
| CCN1CCN(C(=O)c2cc3c(-c4ccc(Cl)cc4)nn(C)c3s2)CC1 | – | inconclusive: 11.6 µM [inhibitor, partial curve] |
| CC(=O)c1ccc(S(=O)(=O)N2CCN(c3ccnc4cc(Cl)ccc34)CC2)cc1 | – | active: 8.2 µM |
| Cc1ccc(-c2nc(C#N)c(N3CCC(C)CC3)o2)cc1 | – | inconclusive: 23.1 µM [inhibitor, single point] |
| Cc1cn(C)c(CC(=O)N2CCN(c3cccc(Cl)c3)CC2)c1C(=O)O | – | inconclusive: 18.4 µM [inhibitor, single point] |
| COc1ccc2cc(CNCc3ccccc3C(F)(F)F)c(N3CCCC(CO)C3)nc2c1 (configuration not stated) | inactive: -12.1% [at 9.04 µM] | – |
| O=c1c([N+](=O)[O-])cccn1Cc1ccccc1Cl | – | inconclusive: 29.1 µM [inhibitor, single point] |
| CCOc1ccccc1CNn1cnnc1SCC(=O)NC(C)(C)C | inactive: 2.76% | – |
| Cc1cccc(C)c1NC(=S)N(Cc1ccccc1)Cc1cccs1 | – | inconclusive: 29.1 µM [inhibitor, single point] |
| Nc1nc2c(ncn2CCC(CO)CO)c(=O)[nH]1 | – | active: 0.668 µM |
| O=C(Nc1ccccc1)C(=O)Nc1ccc2c(c1)N(C(=O)C1CC1)CCC2 | – | active: 20.6 µM |
| Cc1cccc(/C=N/NC(=O)Cc2ccc(Cl)cc2)c1O | – | active: 18.4 µM |
| Cc1ccc(C(=O)NCC(=O)OCC(=O)N(CC(C)C)c2c(N)n(Cc3ccccc3)c(=O)[nH]c2=O)cc1C | – | inconclusive: 16.4 µM [inhibitor, single point] |
| CCCN(CCC)C(=O)Cn1c(=O)n(-c2ccc(CC)cc2)c(=O)c2ccc(C(=O)NCCc3ccccc3)cc21 | – | active: 11.6 µM |
| O=c1c2ccccc2n(Cc2ccccc2Cl)c(=O)n1CCc1ccccc1 | – | inconclusive: 20.6 µM [inhibitor, single point] |
| Cn1cccc1C(=O)N1CCC2(CC1)CN(Cc1cc(C(F)(F)F)cc(C(F)(F)F)c1)C2 | – | inconclusive: 29.1 µM [inhibitor, single point] |
| Cc1cc(C(=O)N/N=C/c2c(C)[nH]c3ccccc23)n[nH]1 | inactive: 15.5% | – |
